This note sets out measurements from US11173192B2 (priority 2016, dated 2021).

For this experiment, the system named is IFN-β promoter.

For “EPRS: glutamyl-prolyl-tRNA synthetase protein, 1512 aa, SEQ ID NO: 63; expressed from plasmid or purified”, the “IFN-β promoter activation (antiviral activity) with N-RIG-I” value (shortened to “IFN-β promoter activation … with N-RIG-I”) is on record as “induced marked activity of IFN-β promoter”; the “IFN-β promoter activation in the presence of TRAF3, TBK1 or IRF7” value was “no substantial activation of the IFN-β promoter”; the “IFN-β promoter activity mediated by N-RIG-I, MDA5, poly(I:C) or MAVS” value is “increased RIG-I-, MDA5-, poly(I:C)-, and MAVS-mediated activity of the IFNB promoter in a dose-dependent manner”. As to “aa 168-196: EPRS L1 linker region between GST-like domain and ERS (DVSTTKARVAPEKKQDVGKFVELPGAEMG; UniProt P07814 168-196, looked up, fragment)”, the “IFN-β promoter activation … with N-RIG-I” value was “have antiviral effects”.

B1: EPRS (aa 1-196): N-terminal EPRS fragment containing GST-like domain and linker region L1 (protein)
chain: MATLSLTVNSGDPPLGALLAVEHVKDDVSISVEEGKENILHVSENVIFTDVNSILRYLARVATTAGLYGSNLMEHTEIDHWLEFSATKLSSCDSFTSTINELNHCLSLRTYLVGNSLSLADLCVWATLKGNAAWQEQLKQKKAPVHVKRWFGFLEAQQAFQSVGTKWDVSTTKARVAPEKKQDVGKFVELPGAEMG
On to B1, for which the “IFN-β promoter activation … with N-RIG-I” value was “induced IFN-β promoter activation comparable with that induced by full-length EPRS”.

B2: aa 168-269: L1 region-containing EPRS fragment (protein, UniProt P07814 168-269, looked up, fragment)
chain: DVSTTKARVAPEKKQDVGKFVELPGAEMGKVTVRFPPEASGYLHIGHAKAALLNQHYQVNFKGKLIMRFDDTNPEKEKEDFEKVILEDVAMLHIKPDQFTYT
As for B2, the “IFN-β promoter activation … with N-RIG-I” value is on record as “have antiviral effects”.

B3: EPRS (aa 1-168): EPRS GST-like domain alone (protein)
chain: MATLSLTVNSGDPPLGALLAVEHVKDDVSISVEEGKENILHVSENVIFTDVNSILRYLARVATTAGLYGSNLMEHTEIDHWLEFSATKLSSCDSFTSTINELNHCLSLRTYLVGNSLSLADLCVWATLKGNAAWQEQLKQKKAPVHVKRWFGFLEAQQAFQSVGTKWD
modifications: left off: small tags and cut ends
In the case of B3, the “IFN-β promoter activation … with N-RIG-I” value is given as “did not induce antiviral activity”.
